Assay results as given in the RNAGym collection of RNA variant scans (doi:10.7554/elife.90254).
Read counts are not given, so values of variants with three or more changes are uncertain.

B1: OR4K15 (parent)
chain: GUUAACGGUCAUAGGCCAUGGAAACUAGGAGCACCAUUUCGCUGCCAGUGAAGAAAUGAACAAAGAAAAUCUGGGCCAGGCAGGCAUCAAAAGAAAUAGUCUUGCGCUCAACCAGAAAGUCUGUAAUCAUUUUAAGGGUA

Variants of: B1
Experiment: self-cleavage, relative activity (ratio to wild type); higher = more cleavage; in vitro, sequencing; the parent is a self-cleaving ribozyme

| Variant | self-cleavage |
| --- | --- |
| A23G A51G A90G | 0.94 |
| A22U U70C A78G | 0.21 |
| A24C A47G A51G | 0.41 |
| A23G U43A A52C A78G U122G | 0.26 |
| A23G A24G U37C A117G U130A | 0.72 |
| A23G A54G G138C | 0.64 |
| A23G A78G A116G | 0.15 |
| A23G U43A A55G A62G U72C A95G | 0.16 |
| A22U A92G C101U | 0.56 |
| A23U G58A A59G A60G U132C | 0.7 |
| A23G A24G G41A A51G A63G U131C | 1.55 |
| A23G A59G A62U G79A A89G | 0.12 |
| A23G A52G A55G | 0.83 |
| A23G A114G G138A | 0.36 |
| A23G A51G A62G C128A | 0.4 |
| A23U A30U U38C U103C A125G | 0.38 |
| A23G U39A A54G A126U | 1 |
| A23G U49G U57A A59G U97A | 1.19 |
| A23G U39C U127C | 0.57 |
| A24C A59U A78G | 0.37 |
| A23U A24G G28A A69G G83U U132C | 0.49 |

| Variant | self-cleavage |
| --- | --- |
| A23G A98G A118G U131C | 0.26 |
| A24C A51U A59G A90G U108A | 0.04 |
| A23G U70C A111G | 0.03 |
| A23G A86G U87A G123A | 1.3 |
| A23G C85U U87A U100A A111G | 0.02 |
| A23G A62U U72A G75C U122C G136A | 0.17 |
| A23G U39A A64G U87G A95G A118G | 0.19 |
| A23G U102A U139C | 0.57 |
| A24C U39C A92G U108C | 0.04 |
| A22U U49C A55G A82U U133C A134G | 0.12 |
| A23G A91G A110G G137A | 0.18 |
| A22U U57A A126G | 0.52 |
| A22U A27G U39C A118U | 0.24 |
| A24C G99A U108C | 0 |
| A22U U72A A78G | 0.17 |
| A23G U26C U38C A69G U120C | 0.37 |
| A23G U38G A59U | 0 |
| A23G A54G A114U | 0.03 |
| A23U A24G A62G A118U | 0.38 |
| A23G U38C A92G A126G | 0.52 |
| A22U A92U U97A | 1.59 |

| Variant | self-cleavage |
| --- | --- |
| A22U A33C A95G A118G | 2.69 |
| A23G A89G A116G | 0.32 |
| A23G A114G U124C | 0.18 |
| A23G U43C U57C A95G A129G | 0.43 |
| A23U U39C A82G | 0.47 |
| A23G A89G A92G A134G | 0.85 |
| A22U U49C A125G A126U C128U U130C | 0.65 |
| A22U A55G A68G A98G | 0.15 |
| A23G A36U A89U U120A | 1.69 |
| A23G U108C A135G | 0.06 |
| A22U A51G U100C | 1.54 |
| A23U A24G U39C U87A | 1.48 |
| A23G C32A U49C A98G U100G U108A A140G | 0.02 |
| A23G A30G U43A A91G U108C | 0.1 |
| A23G U37C A117G | 1.94 |
| A23G U38C A51G U57C U87A | 1.17 |
| A23C A90G A91G A125G | 0.21 |
| A24C U49C A67G A78G U122A | 0.19 |
| A23G U39A A64G A95G | 1.07 |
| A23G A51G G136A | 1.21 |
| A23G A55U A67G | 0.83 |

| Variant | self-cleavage |
| --- | --- |
| A22U A36G A98G A117U U130C | 0.31 |
| A24C U26G A27G U100C U130C | 0.81 |
| A22U U38C U97A | 0.63 |
| A23G U38C A95G U127G | 1.16 |
| A23G A24G A30G A47U A94G | 0.91 |
| A23G U43C U120C U127C | 1.01 |
| A22U A86G A92U | 1.35 |
| A22U A33G A95G A129G | 0.85 |
| A23G U38A U72C | 0.24 |
| A22U U38C U103C A135U | 2.04 |
| A22U A52G A59C A86C U122A | 0.44 |
| A23G G44A U102C U103A A110C U122A A140G | 0.02 |
| A23G A78U A125G | 0.07 |
| A23G U37C C71A A116U | 0.05 |
| A22U A47U A64G U70C | 0.63 |
| A22U U39A A118U | 0.93 |
| A23G A24G U100C U132C | 1.6 |
| A23G U49A C112U | 0.05 |
| A23G A68G C109A | 0.52 |
| A24C U49C A78G | 0.18 |
| A24C A55G A114U | 0.04 |
